Experimental data reported in PubChem BioAssay AID485313 (National Center for Advancing Translational Sciences (NCATS), 2010).
The campaign covered roughly 320,000 compounds. About 7,600 (2.4%) were called active. This list was built around the results that the source calls inconclusive (neither active nor inactive); the mix of calls is not that of the screen. Calls come from the whole dose curve; as a rule, active = well fitted activation curve with a large enough effect; inconclusive = small, poorly fitted or top-dose-only effect; inactive = no such curve, though single readings can be large or run the other way. No potency is given beside an inconclusive call; the fits are too rough.

Assay: qHTS Assay for NPC1 Promoter Activators; note: nearly all actives have a fitted effect of over 60% in size;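 for activation: reporter is driven by a mutant NPC1 promoter; % of control where 0% means no effect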
Details: Huh7 NPC1 promoter luciferase reporter, 24 h; series mostly up to 9.22 µM; activation: at the top concentration
Summary of the method: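 NPC1 promoter–luciferase Huh7 cells; 24 h compound; luminescence.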
Potency is the fitted concentration of half-maximal effect; tags give direction and shape of the fitted curve.

Q: For `COc1ccc(NC(=O)C2CCCN(c3ncccn3)C2)cc1` (stereo unspecified), which Potency is on record?
A: inconclusive [activator, single point]

Q: Which “activation” value does the source give for `CC(C)NC(=O)c1onc(CSc2ccc(F)cc2)c1C(=O)O` here?
A: inactive: 1.39%

Q: For `CC(C)n1cnc2cc(NCc3ccco3)ccc21`, which Potency is on record?
A: inconclusive [activator, single point]

Q: For `Cc1ccn2cc(-c3ccc(Br)cc3)nc2c1`, which Potency is on record?
A: active: 2.82 µM

Q: For `O=C(C(Cc1ccccc1)N1C(=O)c2ccccc2C1=O)N1CCc2ccccc21` (stereo unspecified), which “activation” value is on record?
A: inactive: 0.623%

Q: For `C=CCNC(=S)NNC(=O)COc1ccc2cc(Br)ccc2c1`, which Potency is on record?
A: inconclusive [activator, single point]

Q: With `O=C(COc1ccc(Br)cc1Cl)c1ccc[nH]1` as the compound, how does the Potency read?
A: inconclusive [activator, partial curve]

Q: For `Cn1cc([N+](=O)[O-])c(C(=O)Nc2ccc(-c3nc4ccccc4o3)cc2)n1`, which Potency is on record?
A: inconclusive [activator, partial curve]

Q: For `Brc1ccc(-c2csc(NC3=NCCCCC3)n2)cc1`, which Potency is on record?
A: inconclusive [activator, single point]

Q: For `O=C(Nc1ccccc1)Nc1nnc(-c2cccs2)s1`, which Potency is on record?
A: inconclusive [activator, partial curve]

Q: For `NC(=O)CS(=O)(=O)c1ccc(Cl)cc1`, which Potency is on record?
A: inconclusive [activator, single point]

Q: Which Potency does the source give for `COc1cccc(-c2nnc(N(C)C(=O)c3ccno3)s2)c1` here?
A: inconclusive [activator, single point]

Q: Which Potency does the source give for `COc1cc(/C=C/c2ccc(O)cc2)cc(OC)c1` here?
A: inconclusive [activator, partial curve]

Q: Which Potency does the source give for `COCC(C)NC(=O)c1cc(-c2ccccc2OC)on1` (stereo unspecified) here?
A: inconclusive [activator, single point]

Q: Which Potency does the source give for `O=C(/C=C/c1c(F)cccc1Cl)Nc1ncccn1` here?
A: active: 2.82 µM

Q: With `CC(=O)n1c2ccccc2c2c1c1ccccc1n2C` as the compound, how does the “activation” value read?
A: inactive: 25.9%

Q: For `O=C(Nc1nnc(SCC(=O)N2CCCc3ccccc32)s1)c1ccc2ccccc2c1`, which Potency is on record?
A: inconclusive [activator, partial curve]

Q: For `COc1cc2sc(NC(=O)c3ccco3)nc2cc1Cl`, which Potency is on record?
A: active: 0.708 µM

Q: With `Cc1ccc2nc(NC(=O)Cc3cccs3)sc2c1` as the compound, how does the Potency read?
A: active: 2.24 µM

Q: For `O=C(Nc1ccc2c(c1)CCC2)c1cc2ccccc2o1`, which Potency is on record?
A: active: 1.26 µM

Q: Which “activation” value does the source give for `CCOc1ccc(C(=O)NCC(=O)NCC(c2ccccc2OC)N2CCCC2)cc1` (stereo unspecified) here?
A: inactive: 6.02%

Q: With `O=C(Nc1ccc(N2CCOCC2)cc1)Nc1cnsn1` as the compound, how does the Potency read?
A: inconclusive [activator, single point]

Q: Which Potency does the source give for `COc1ccc(O)c(C(=O)CC(=O)c2ccccc2)c1` here?
A: active: 0.708 µM

Q: Which Potency does the source give for `NC(=O)c1cccc(NC(=O)Nc2ccc(Cl)cc2)c1` here?
A: inconclusive [activator, partial curve]

Q: For `COc1cccc(/C=C/C(=O)Nc2ccc3nc4n(c(=O)c3c2)CCCC4)c1OC`, which “activation” value is on record?
A: inactive: 4.58%

Q: Which Potency does the source give for `O=C(NCCc1c[nH]c2ccccc12)c1c(Cl)nc2sccn12` here?
A: inconclusive [activator, partial curve]

Q: With `CCn1cc(C(=O)NCC(OC)OC)c(=O)c2cc(S(=O)(=O)N3CCCC3)ccc21` as the compound, how does the “activation” value read?
A: inactive: 1.84%

Q: For `CC1(C)CNc2cc([N+](=O)[O-])ccc2S1`, which Potency is on record?
A: inconclusive [activator, partial curve]

Q: For `COC(=O)c1c(C)oc(C)c1S(=O)(=O)N(C)C1CCCCC1`, which Potency is on record?
A: inconclusive [activator, single point]

Q: Which Potency does the source give for `Cc1oc2cc(O)cc(O)c2c(=O)c1-c1ccc2c(c1)OCCCO2` here?
A: inconclusive [activator, single point]

Q: With `CCC1CSC(=Nc2ccc(C)cc2)N1C(=O)CN1C(=O)NC2(CCCC2)C1=O` (stereo unspecified) as the compound, how does the Potency read?
A: active: 0.562 µM

Q: Which Potency does the source give for `COc1cc(/C=N/NC(=O)c2ccccn2)ccc1OC(=O)c1ccccc1Br` here?
A: inconclusive [activator, partial curve]

Q: Which Potency does the source give for `O=c1c(Br)c(N2CCOCC2)cnn1-c1ccccc1` here?
A: inconclusive [activator, partial curve]

Q: Which Potency does the source give for `O=C(Nc1nc2ccccc2s1)C1CCCO1` (stereo unspecified) here?
A: active: 1.12 µM

Q: For `COc1cccc(C(=O)Nc2ccc(NC(=O)c3ccco3)nc2)c1`, which Potency is on record?
A: inconclusive [activator, partial curve]

Q: Which Potency does the source give for `COC(=O)CCN1CCc2cc(N=Nc3ccc([N+](=O)[O-])cc3)ccc21` here?
A: active: 1.12 µM

Q: With `c1ccc(-c2ccc(-c3cnc4n3CCCCC4)cc2)cc1` as the compound, how does the Potency read?
A: inconclusive [activator, partial curve]

Q: With `Cn1cccc1/C=C1\SC(=O)N(c2ccccc2)C1=O` as the compound, how does the Potency read?
A: active: 2 µM

Q: With `COc1cccc(/C=C/C(=O)c2cccc([N+](=O)[O-])c2)c1OC` as the compound, how does the “activation” value read?
A: inactive: 8.57%

Q: For `CSc1ccccc1OCc1cc(C(=O)NCc2csc(C(C)C)n2)no1`, which Potency is on record?
A: inconclusive [activator, single point]

Q: For `Fc1ccc(Nc2ccnc(Nc3ccc(F)cc3)n2)cc1`, which Potency is on record?
A: inconclusive [activator, single point]

Q: For `O=C(NC(=S)Nc1nc2ccccc2s1)c1cccs1`, which Potency is on record?
A: inconclusive [activator, single point]

Q: For `CCOC(=O)c1sc(=NC(=O)/C=C/c2ccccc2)n(C)c1C`, which Potency is on record?
A: inconclusive [activator, partial curve]

Q: Which Potency does the source give for `O=C(COc1ccc(F)cc1)Nc1nc2c(s1)CCCC2` here?
A: inconclusive [activator, partial curve]

Q: For `CSc1ncccc1C(=O)OCC(=O)c1cc(C)n(CC2CCCO2)c1C` (stereo unspecified), which Potency is on record?
A: active: 1.12 µM

Q: For `CC(C)(C)c1csc(NC(=O)c2cccs2)n1`, which Potency is on record?
A: active: 3.16 µM

Q: For `O=[N+]([O-])c1ccc2oc(-c3ccccc3)nc2c1`, which Potency is on record?
A: inconclusive [activator, partial curve]

Q: Which Potency does the source give for `CCN=c1scc(-c2ccc(F)cc2)n1/N=C/c1ccccn1` here?
A: active: 2.51 µM

Q: For `CCn1cnc2sc(C(=O)Oc3cccc(C)c3)c(C)c2c1=O`, which Potency is on record?
A: inconclusive [activator, single point]

Q: Which Potency does the source give for `COc1cccc(NC(=O)Nc2ccc3c(c2)nnn3C)c1` here?
A: inconclusive [activator, single point]

Q: Which Potency does the source give for `COc1cccc(/C=N/NC(=O)c2cccs2)c1` here?
A: inconclusive [activator, single point]

Q: For `O=C(Nc1ccccn1)c1ccc(C(=O)c2ccccc2)cc1`, which Potency is on record?
A: active: 3.55 µM

Q: For `CCCC(=O)Nc1nc2c(C)c(Cl)ccc2s1`, which Potency is on record?
A: inconclusive [activator, single point]

Q: Which Potency does the source give for `CC(C)(C)n1cnc2cc(NC(=O)c3cccs3)ccc21` here?
A: active: 2.51 µM

Q: With `O=C(Nc1ccc(C(=O)c2ccccc2)cc1)c1ccccc1` as the compound, how does the Potency read?
A: active: 3.55 µM

Q: With `Cc1ccc(-c2cc(-c3ccc(C)cc3O)[nH]n2)cc1` as the compound, how does the Potency read?
A: active: 0.708 µM

Q: For `O=C(NCCCn1ccnc1)c1ccncc1`, which Potency is on record?
A: inconclusive [activator, single point]

Q: Which Potency does the source give for `Cc1ccc2nc(Cl)c(/C=C/C(=O)c3ccco3)cc2c1` here?
A: inconclusive [activator, single point]

Q: For `C(=N\Nc1nc2ccccc2[nH]1)/c1ccncc1`, which Potency is on record?
A: inconclusive [activator, single point]

Q: For `CC(=O)c1ccc(NC(=O)[C@@H]2CCCN2C(=O)OC(C)(C)C)cc1`, which Potency is on record?
A: inconclusive [activator, partial curve]

Q: Which “activation” value does the source give for `CSCCC1NC(=O)N(CC(=O)Nc2ccc(N3CCCCC3)cc2)C1=O` (stereo unspecified) here?
A: inactive: 11.2%

Q: For `O=C(COc1ccccc1)OCC(=O)c1c[nH]c2ccccc12`, which “activation” value is on record?
A: inactive: 3.95%

Q: Which Potency does the source give for `C/C(=N\Nc1ncc(Cl)cc1Cl)c1ccc(S(=O)(=O)NCc2ccco2)cc1` here?
A: inconclusive [activator, partial curve]

Q: For `CCN(CC)S(=O)(=O)c1ccc(C)c(C(=O)Oc2cccc(-c3cnc4ccccc4n3)c2)c1`, which Potency is on record?
A: inconclusive [activator, single point]

Q: Which Potency does the source give for `Cc1ccc(NC(=O)c2ccc(=O)[nH]n2)cc1C` here?
A: inconclusive [activator, single point]

Q: With `Cc1ccc(NC(=S)NNC(=O)c2nn(C)c(C)c2Cl)cc1` as the compound, how does the Potency read?
A: inconclusive [activator, partial curve]

Q: Which Potency does the source give for `CC(C)C(=O)Nc1ccc(NC(=O)c2ccccc2Cl)nc1` here?
A: inconclusive [activator, partial curve]

Q: With `C/C(=N\NC(=O)c1cccc(O)c1)c1ccc(NC(=O)Cc2ccccc2)cc1` as the compound, how does the Potency read?
A: inconclusive [activator, single point]

Q: Which Potency does the source give for `S=C1NCN(CCc2ccccc2)CN1Cc1ccccc1` here?
A: inconclusive [activator, full curve]

Q: With `Nc1ccc(Nc2nc(-c3cc4ccccc4oc3=O)cs2)cc1` as the compound, how does the Potency read?
A: inconclusive [activator, single point]

Q: Which Potency does the source give for `O=C(NC(=O)c1ccccc1)C1=C(N2CCCC2)COC1=O` here?
A: active: 2.24 µM

Q: With `COC(=O)c1c(C)[nH]c(C(=O)CSc2ccc(Cl)cc2)c1C` as the compound, how does the Potency read?
A: active: 3.98 µM

Q: For `O=c1cc(O)n(Cc2ccc(F)cc2)c(=O)[nH]1`, which Potency is on record?
A: inconclusive [activator, single point]

Q: For `Oc1cccc(/C=N/Nc2cccc3cccnc23)c1`, which Potency is on record?
A: inconclusive [activator, single point]

Q: With `CCOCC(O)CNC(=O)c1ccc2nc(Cc3ccc(OC)c(OC)c3)oc2c1` (stereo unspecified) as the compound, how does the Potency read?
A: inconclusive [activator, single point]

Q: Which Potency does the source give for `O=C(Nc1ccc2ccccc2n1)Nc1ccccc1F` here?
A: inconclusive [activator, single point]
